From the supplement of paper PMC3334620
Over roughly 33,000 sequences, “E-score (-0.5 to 0.5)” has its median near -0.043; the highest 2% begin near 0.37. Some of the results follow.

Target: T1, Upc2 (UniProt Q12151)
T1 sequence: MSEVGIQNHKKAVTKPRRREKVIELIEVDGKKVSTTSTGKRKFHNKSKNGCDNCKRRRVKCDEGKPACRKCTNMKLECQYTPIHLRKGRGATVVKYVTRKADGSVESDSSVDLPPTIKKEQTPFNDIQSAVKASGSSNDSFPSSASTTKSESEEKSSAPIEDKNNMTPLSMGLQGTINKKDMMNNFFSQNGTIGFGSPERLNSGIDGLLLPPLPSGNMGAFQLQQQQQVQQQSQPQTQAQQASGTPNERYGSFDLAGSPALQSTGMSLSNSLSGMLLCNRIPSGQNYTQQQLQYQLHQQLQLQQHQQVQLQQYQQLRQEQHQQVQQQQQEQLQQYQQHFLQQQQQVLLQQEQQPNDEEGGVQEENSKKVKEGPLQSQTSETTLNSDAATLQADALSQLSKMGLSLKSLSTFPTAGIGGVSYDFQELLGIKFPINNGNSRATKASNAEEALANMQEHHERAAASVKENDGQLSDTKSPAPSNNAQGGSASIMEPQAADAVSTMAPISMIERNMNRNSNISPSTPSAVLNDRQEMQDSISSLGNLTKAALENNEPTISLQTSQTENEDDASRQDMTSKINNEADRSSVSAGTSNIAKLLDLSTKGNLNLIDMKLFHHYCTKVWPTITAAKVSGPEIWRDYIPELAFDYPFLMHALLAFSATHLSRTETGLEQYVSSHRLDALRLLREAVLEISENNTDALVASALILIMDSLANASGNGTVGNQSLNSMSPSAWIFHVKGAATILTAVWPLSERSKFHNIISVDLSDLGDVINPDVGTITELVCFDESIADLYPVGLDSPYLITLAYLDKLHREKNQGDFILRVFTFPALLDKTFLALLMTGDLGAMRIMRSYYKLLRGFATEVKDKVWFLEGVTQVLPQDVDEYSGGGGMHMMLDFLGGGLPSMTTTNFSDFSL
Assay: PBM E-score (8-mer binding enrichment) (E-score (-0.5 to 0.5)); higher = stronger / more preferred TF binding; most listed sequences are background and not binding sites
Conditions: protein concentration: 200 nM; construct: GST-full length
How it was run: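 GST-tagged yeast TFs (full-length or DNA-binding domain) were made by PURExpress in vitro transcription/translation and applied at about 100-200 nM to universal all-10-mer Agilent arrays. The arrays were made double-stranded by primer extension, on fresh or once-stripped slides. Bound protein was detected with fluorescent anti-GST, and scans were normalised with masliner. Each ungapped eight-base word, pooled with its reverse complement, received an E-score (modified Wilcoxon-Mann-Whitney statistic) from the Universal PBM Analysis Suite.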

| Sequence | PBM E-score |
| --- | --- |
| AGTAGCCA | -0.191 |
| AGATTCGA | -0.0815 |
| AAAGACCT | -0.26 |
| GATTGATA | 0.0111 |
| CATGCTGC | -0.246 |
| CTGATAGA | -0.00561 |
| CTCATGCA | -0.15 |
| TTATTAAA | 0.0741 |
| GGCATGCC | 0.196 |
| CTTGTGAA | -0.182 |
| AACGTCAA | 0.104 |
| AATATGGT | 0.115 |
| ATAGGACC | -0.0988 |
| AAACGCCA | 0.137 |
| CGTAGTCC | -0.0309 |
| AAGGTGCA | -0.195 |
| CCCTTATA | 0.197 |
| AAGGAAAG | -0.171 |
| CTCAAGTC | -0.0205 |
| AACGGGGC | 0.206 |
| CAAGTCAA | -0.065 |
| ACAGTCCA | -0.0945 |

| Sequence | PBM E-score |
| --- | --- |
| TAATGCTA | -0.11 |
| GGTTCCTA | -0.0658 |
| ACAAGAGG | -0.227 |
| GATGGGCA | -0.0127 |
| ATCTCCAG | -0.0526 |
| CGCTTCCC | 0.00654 |
| TAGTAGCA | 0.0994 |
| AAAATCTG | -0.0273 |
| AAAGCACC | -0.0139 |
| ATCTGTGA | -0.0259 |
| CGTATGAG | 0.415 |
| CAACCATG | -0.257 |
| AGCTTGAG | -0.215 |
| CCGCGGCA | -0.117 |
| GTGGCTCA | -0.239 |
| ACCTACGA | 0.227 |
| CCAGTCGC | 0.0234 |
| AGTGCCGC | -0.129 |
| CAGGCCTA | -0.0808 |
| CCTCAGAA | -0.0458 |
| CACTGATA | -0.0955 |
| AGAGTTCG | 0.1 |

| Sequence | PBM E-score |
| --- | --- |
| GTGACGTA | 0.174 |
| AGTTCCAG | -0.188 |
| CGTAAGGA | 0.326 |
| ATCGATGA | -0.0519 |
| CCTCTCCC | -0.183 |
| CGGTAACG | 0.273 |
| GGCGAGCC | -0.191 |
| CGGCCTAA | 0.0611 |
| CTAGCGAA | -0.106 |
| AGATGAAA | -0.0712 |
| CATCGATC | -0.0852 |
| CAGACGCA | -0.19 |
| GATGGGAA | -0.0309 |
| CGCCCCGA | -0.0201 |
| AGGTTAAG | -0.214 |
| CCCCAACA | -0.167 |
| CCTGAAGG | -0.274 |
| GCACAAAC | 0 |
| CACACCGA | 0.151 |
| GGTTGACA | -0.0866 |
| ACATAACT | -0.0659 |
| CAGGTAAA | 0.0393 |

| Sequence | PBM E-score |
| --- | --- |
| ACCAACCA | -0.0187 |
| CAGGGACC | -0.169 |
| CGTCGTTC | 0.464 |
| CATGCGAG | 0.198 |
| GCTGAGCC | -0.00051 |
| AGCTTCAG | -0.298 |
| AAGAAAGG | -0.0897 |
| AGAAAATG | 0.00498 |
| ACAGGGAT | 0.00643 |
| ATCGAAGC | -0.00965 |
| CCGGGGCA | -0.153 |
| CCATTCAC | 0.00889 |
| AAAACCCT | -0.0378 |
| AGCCCCAT | -0.194 |
| CCATGGGA | -0.206 |
| CATGAGAA | -0.077 |
| CCTGGGTA | -0.236 |
| CTTCCGTC | 0.00548 |
| ACCGTATG | 0.381 |
| ACCAAGAT | -0.106 |
